Source: IntAct's records for PubMed 25502805

B1: Myeloid differentiation primary response protein MyD88 (Homo sapiens), Q99836 (parent)
chain: MAAGGPGAGSAAPVSSTSSLPLAALNMRVRRRLSLFLNVRTQVAADWTALAEEMDFEYLEIRQLETQADPTGRLLDAWQGRPGASVGRLLELLTKLGRDDVLLELGPSIEEDCQKYILKQQQEEAEKPLQVAAVDSSVPRTAELAGITTLDDPLGHMPERFDAFICYCPSDIQFVQEMIRQLEQTNYRLKLCVSDRDVLPGTCVWSIASELIEKRCRRMVVVVSDDYLQSKECDFQTKFALSLSPGAHQKRLIPIKYKAMKKEFPSILRFITVCDYTNPCTKSWFWTRLAKALSLP
partner: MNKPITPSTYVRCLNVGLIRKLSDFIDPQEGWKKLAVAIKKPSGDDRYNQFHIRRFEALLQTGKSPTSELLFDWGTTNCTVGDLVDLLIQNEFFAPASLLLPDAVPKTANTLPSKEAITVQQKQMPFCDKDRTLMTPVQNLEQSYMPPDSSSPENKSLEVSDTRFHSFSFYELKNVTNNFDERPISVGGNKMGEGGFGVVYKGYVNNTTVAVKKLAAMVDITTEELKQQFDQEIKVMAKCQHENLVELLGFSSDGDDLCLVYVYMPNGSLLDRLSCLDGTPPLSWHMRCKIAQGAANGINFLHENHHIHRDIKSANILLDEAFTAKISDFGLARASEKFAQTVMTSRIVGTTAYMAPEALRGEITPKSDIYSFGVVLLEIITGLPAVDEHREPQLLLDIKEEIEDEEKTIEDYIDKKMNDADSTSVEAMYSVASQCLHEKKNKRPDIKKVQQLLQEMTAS

Variants of: B1
Details: with irak4_human IRAK4, Q9NWZ3

effect of a mutation on the interaction | Variant
disrupting interaction strength | R196C
disrupting interaction strength | L93P
